# PubChem BioAssay AID1347165 (National Center for Advancing Translational Sciences (NCATS), 2019)
# The campaign covered roughly 220,000 compounds. About 5,700 (2.6%) were called active. Inconclusive means that the source gave no clear call. Such entries were picked first, then a sample of the others. Calls follow the shape of the dose curve; as a rule, active = well fitted inhibition curve with a large enough effect; inconclusive = small, poorly fitted or top-dose-only effect; inactive = no such curve, though single readings can be large or run the other way. Potencies beside an inconclusive call are fits to weak or partial responses and may not hold up.
# Target: Lysine-specific demethylase 5B (Homo sapiens) (UniProt Q9UGL1)
# Assay: Primary screen for KDM5B Histone Demethylases FDH-coupled qHTS; also: nearly all actives have a fitted effect of over 70% in size; as to activity change, negative = inhibition: 0% is about no effect
# Conditions: FDH-coupled NADH fluorescence (FDH is formaldehyde dehydrogenase); activity change, negative = inhibition: at 57.7 µM (top of the series) unless noted
# Procedure, shortened: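 Here, H3K4me3 peptide (12.5 µM in substrate mix) is demethylated by KDM5BΔAP, 200 nM final, after 10 min compound exposure. Formaldehyde product is coupled through FDH (0.25 U/mL in mix) to NADH fluorescence; 30-min ΔRFU feeds dose-response curves.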
# Potency is read from the fitted curve at half-maximal effect; tags tell the direction and shape of the fitted curve.
# Chain of UniProt Q9UGL1 (Q9UGL1 whole entry, looked up): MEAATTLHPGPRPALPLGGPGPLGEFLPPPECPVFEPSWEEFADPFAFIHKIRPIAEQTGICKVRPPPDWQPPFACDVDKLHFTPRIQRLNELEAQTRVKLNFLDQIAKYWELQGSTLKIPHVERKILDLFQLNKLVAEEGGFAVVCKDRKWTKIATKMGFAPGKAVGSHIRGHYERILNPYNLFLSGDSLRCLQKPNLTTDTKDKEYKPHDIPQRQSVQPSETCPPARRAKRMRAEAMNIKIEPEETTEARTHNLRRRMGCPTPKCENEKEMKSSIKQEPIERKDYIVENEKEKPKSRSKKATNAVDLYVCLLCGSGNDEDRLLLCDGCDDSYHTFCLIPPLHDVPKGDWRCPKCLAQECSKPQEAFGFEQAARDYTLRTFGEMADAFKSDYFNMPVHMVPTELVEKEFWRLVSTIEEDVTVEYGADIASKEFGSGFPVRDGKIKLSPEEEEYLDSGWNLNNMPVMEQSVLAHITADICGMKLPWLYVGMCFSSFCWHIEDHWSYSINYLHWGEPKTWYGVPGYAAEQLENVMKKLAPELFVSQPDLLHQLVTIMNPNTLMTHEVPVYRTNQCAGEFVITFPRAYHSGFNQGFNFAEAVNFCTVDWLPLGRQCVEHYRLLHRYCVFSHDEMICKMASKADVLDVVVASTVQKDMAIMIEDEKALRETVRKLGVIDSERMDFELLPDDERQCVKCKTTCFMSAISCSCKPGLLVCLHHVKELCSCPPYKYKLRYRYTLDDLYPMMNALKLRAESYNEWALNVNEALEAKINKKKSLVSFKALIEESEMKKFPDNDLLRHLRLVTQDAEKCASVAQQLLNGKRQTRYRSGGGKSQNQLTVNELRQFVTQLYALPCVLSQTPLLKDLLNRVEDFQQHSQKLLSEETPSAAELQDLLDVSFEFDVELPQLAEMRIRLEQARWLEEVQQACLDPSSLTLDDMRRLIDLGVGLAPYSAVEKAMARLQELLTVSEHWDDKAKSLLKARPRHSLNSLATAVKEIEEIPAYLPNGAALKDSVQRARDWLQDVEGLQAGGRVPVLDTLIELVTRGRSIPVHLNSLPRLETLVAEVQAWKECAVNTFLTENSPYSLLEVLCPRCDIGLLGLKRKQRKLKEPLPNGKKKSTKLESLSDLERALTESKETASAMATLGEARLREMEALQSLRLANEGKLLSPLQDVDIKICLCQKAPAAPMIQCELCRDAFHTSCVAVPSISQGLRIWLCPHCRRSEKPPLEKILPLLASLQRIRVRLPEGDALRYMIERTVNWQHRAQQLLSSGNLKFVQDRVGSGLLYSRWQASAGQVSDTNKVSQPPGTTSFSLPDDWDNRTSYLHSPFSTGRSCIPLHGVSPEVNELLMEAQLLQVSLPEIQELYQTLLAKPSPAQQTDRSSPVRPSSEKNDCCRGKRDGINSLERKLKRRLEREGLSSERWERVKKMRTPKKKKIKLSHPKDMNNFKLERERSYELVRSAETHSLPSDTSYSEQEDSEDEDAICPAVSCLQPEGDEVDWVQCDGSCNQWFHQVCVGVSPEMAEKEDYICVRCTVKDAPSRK
Compound,Potency,"activity change, negative = inhibition"
CCC1Oc2ccc(NC(=O)c3ccccc3F)cc2CN(Cc2ccc3c(c2)OCO3)C1=O (stereo unspecified),"inconclusive: 31.6 µM [inhibitor, partial curve, poor fit]",
CCN1c2cc(C(=O)NC3CCCCCC3)ccc2C(=O)N2CCCCC21 (stereo unspecified),"inconclusive: 22.4 µM [inhibitor, partial curve, poor fit]",
Cc1ccc2oc(-c3ccc(C)c(NC(=O)/C=C/c4ccco4)c3)nc2c1,"inconclusive: 10 µM [inhibitor, partial curve, poor fit]",
Cc1cc(N2CCN(C(=O)Cn3nnnc3CN3CCC(C)CC3)CC2)cc(C)n1,,inactive: 7.34%
COc1cc(Nc2ccc3nnc(-c4ccccn4)n3n2)cc(OC)c1OC,,inactive: -2.08% [at 86.2 µM]
O=C(/C=C/c1ccc(-c2ccc(Cl)c(Cl)c2)o1)c1ccc(Cl)cc1,,inactive: -17%
COc1cc(OC)cc(-c2nn3c(CN4CCCCC4)nnc3s2)c1,,inactive: -17.3%
Cc1cc(N2CCC(C)CC2)nc2ccc(NC(=O)Cc3ccccc3Br)cc12,"inconclusive: 3.55 µM [inhibitor, full curve, poor fit]",
Cc1ccc(C(=O)/C=C/c2c(C)n[nH]c2C)cc1C,,inactive: -9.34%
COc1cc2nc(Nc3cccc(F)c3)nc(N)c2cc1OC,"inconclusive: 25.1 µM [inhibitor, partial curve, poor fit]",
CCOc1ccc(-c2nc(-c3ccccc3)c(-c3ccccc3)[nH]2)cc1OCC,"inconclusive: 31.6 µM [inhibitor, partial curve, poor fit]",
Cc1ccc(C2c3cc(OCc4nc(C(=O)NCC5CC5)co4)ccc3CCN2C(=O)C2CC2)cc1 (stereo unspecified),,inactive: -18.7%
COCCN1C(=O)CS(=O)C12CCN(C(=O)c1cccc3[nH]ccc13)CC2 (stereo unspecified),active: 28.2 µM,
CC(C)Cn1cc(NC(=O)N2CCN(c3cccc(C(F)(F)F)c3)CC2)c2ccccc2c1=O,"inconclusive: 15.8 µM [inhibitor, partial curve, poor fit]",
c1ccc(Nc2nc(NCc3ccco3)nc3c2cnn3-c2ccccc2)cc1,"inconclusive: 28.2 µM [inhibitor, partial curve, poor fit]",
CCn1nccc1C(=O)N1CCN(c2cc(-c3ccccc3)[nH]n2)CC1,,inactive: 4.32%
CCCCSc1nnc2c(n1)OC(c1ccc(Br)s1)Nc1ccccc1-2 (stereo unspecified),"inconclusive: 5.62 µM [inhibitor, partial curve, poor fit]",
Cc1cc(Br)ccc1NCC(=O)N(C1CCCCC1)C1CCS(=O)(=O)C1 (stereo unspecified),,inactive: 2.44%
COc1cc(Cl)ccc1C(=O)N1C[C@@H](F)C[C@H]1C(=O)N1CCCCC1,,inactive: 15%
Cc1ccc(NC(=O)C(=O)c2c(C)[nH]c3ccccc23)cc1,,inactive: 3.09%
O=C(NCc1nnc2c(-c3nc(C4CC4)no3)cccn12)c1ccc(F)c(Cl)c1,active: 28.2 µM,
CC(C)CNC(=O)Cn1ccc2c(Cl)cccc21,,inactive: 2.02%
NC(=O)C1CCN(c2csc3ccc(F)cc3c2=O)CC1,"inconclusive: 22.4 µM [inhibitor, partial curve, poor fit]",
O=S(=O)([N-]c1nc2ccccc2nc1-n1cc[n+](Cc2ccccc2)c1)c1ccc(Cl)cc1,"inconclusive: 31.6 µM [inhibitor, single point]",

Compound,Potency,"activity change, negative = inhibition"
O=C(Nc1ccc(-n2cccn2)cc1)C1CCN(Cc2ccsc2)CC1,,inactive: 23.1%
COc1cc(/C=C(/C#N)c2nc3ccccc3[nH]2)ccc1OCCc1ccccc1,"inconclusive: 39.8 µM [inhibitor, single point]",
O=C(N[C@H]1CCN2C(=O)c3cc(-c4ccccc4)ccc3NC(=O)[C@H]12)C1CCCC1,,inactive: 0.169% [at 86.2 µM]
CCOC(=O)COc1ccc2cc(-c3ccccc3)c(=O)oc2c1,,inactive: -2020%
CCOCCCN(Cc1ccco1)C(=O)c1cc2c(s1)-c1c(C)cccc1OC2,"inconclusive: 35.5 µM [inhibitor, partial curve, poor fit]",
CNC(=O)[C@@H](c1ccccc1F)N1CCC[C@H]1C(=O)NCc1cccnc1,,inactive: -27.6%
O=C(NCc1ccncc1)c1cc(C2CC2)nc2c1c(C1CCCN1)nn2-c1ccccc1 (stereo unspecified),"inconclusive: 63.1 µM [inhibitor, partial curve, poor fit]",
COc1ccc(C(=O)NCCn2ccn3nc(-c4cc(C)ccc4C)cc3c2=O)c(OC)c1,"inconclusive: 35.5 µM [inhibitor, single point]",
COc1ccc(-n2cc(CN3CCC(CO)CC3)c(-c3cccc(F)c3)n2)cc1,"inconclusive: 17.8 µM [inhibitor, partial curve, poor fit]",
COc1ccc(OC)c(NC(=O)c2nc(S(=O)(=O)Cc3ccc(F)cc3)ncc2Cl)c1,"inconclusive: 11.2 µM [inhibitor, partial curve, poor fit]",
CCOC(=O)COc1ccc2c(=O)c(Oc3ccc(OC)cc3)c(C)oc2c1,,inactive: -0.121%
CCOC(=O)C(NC(=O)c1nccc2ccccc12)C(=O)OCC,,inactive: -8.01%
Cc1csc2nc(-c3ccc(NS(=O)(=O)c4cccs4)cc3)cn12,,inactive: 3%
CCCOc1ccc(CNC(=O)[C@@]23CCCC[C@H]2N(CCOC)C(=O)CC3)cc1,"inconclusive: 39.8 µM [inhibitor, single point]",
O=C1CN(Cc2ccc(-c3cccs3)cc2)CCN1c1ccc(Cl)nn1,active: 79.4 µM,
COc1ccccc1N1CCN(CC(O)COc2ccc(Cl)c(C)c2)CC1 (stereo unspecified),"inconclusive: 22.4 µM [inhibitor, partial curve, poor fit]",
N#Cc1ccc(C(=O)N2CC[C@H]3C(=O)NCCCCCCN(Cc4ccncc4)[C@@H]3C2)cc1,"inconclusive: 22.4 µM [inhibitor, partial curve, poor fit]",
c1cncc(-c2ccnc(NCCCN3CCCc4ccccc43)n2)c1,"inconclusive: 28.2 µM [inhibitor, partial curve, poor fit]",
Cc1cc(CSc2ncccc2C(=O)Nc2ccnn2Cc2cccnc2)no1,,inactive: -3.58%
Cc1noc(C)c1C(=O)N1CC(c2noc(C3CCCN3CC3CC3)n2)C1 (stereo unspecified),,inactive: -12.3%
Cc1oc2ccn(Cc3ccccc3F)c(=O)c2c1C(=O)NC1CCCCC1,"inconclusive: 15.8 µM [inhibitor, partial curve, poor fit]",
O=C(c1ccc2cc[nH]c2c1)N1CCC(n2cc(-c3nc(-c4ccccc4)no3)nn2)CC1,"inconclusive: 14.1 µM [inhibitor, partial curve, poor fit]",
Cc1ccccc1-c1cc(C(=O)O)c2ccc(Br)cc2n1,,inactive: -13.2%
FC(F)(F)c1ccnc(N2CCOCC3(CN(Cc4ccccc4)C3)C2)n1,"inconclusive: 39.8 µM [inhibitor, partial curve, poor fit]",

Compound,Potency,"activity change, negative = inhibition"
FC(F)(F)c1cc(-c2ccccc2)nc(SCc2ccccn2)n1,,inactive: -14.6%
Cc1cccc(-c2nccc3c(=O)cc(N4CCN(C)CC4)oc23)c1,active: 35.5 µM,
Cc1ccc(C)c(Cn2nc(-c3ccc(C)c(S(=O)(=O)N4CCCC4)c3)ccc2=O)c1,,inactive: -27.6%
CCC(=O)N1CCc2c(sc3ncnc(NCc4cccnc4)c23)C1,"inconclusive: 39.8 µM [inhibitor, partial curve, poor fit]",
COc1ccccc1CNC(=O)c1ccc(N2CCCC2)c(NC(=O)NCc2ccc(C)cc2)c1,"inconclusive: 39.8 µM [inhibitor, single point]",
Cc1ccccc1CNC(=O)Cn1c(=O)c2cccn2c2cccnc21,"inconclusive: 39.8 µM [inhibitor, single point]",
CNc1ncccc1C(=O)N[C@H](c1cccs1)C1CC(O)C1 (stereo partly specified),active: 28.2 µM,
CCOC(=O)CNC(=O)N1CCN(S(=O)(=O)c2ccc3c(ccn3C)c2)CC1,"inconclusive: 1.78 µM [inhibitor, full curve, poor fit]",
COc1ccc(N2CC3(COCC2=O)CN(c2ccc(C(F)(F)F)cn2)C3)cc1,"inconclusive: 35.5 µM [inhibitor, partial curve, poor fit]",
COc1cc(NC(=O)c2cc(=O)c3ccccc3o2)cc(OC)c1OC,,inactive: -17%
Cc1ccc(-c2[nH]c3ccccc3c2C)cc1,"inconclusive: 20 µM [inhibitor, partial curve, poor fit]",
Cc1cccc(OCC(=O)NCCn2ccn3nc(-c4ccc(C)cc4C)cc3c2=O)c1,"inconclusive: 17.8 µM [inhibitor, partial curve, poor fit]",
CCN(c1ccc(OC)cc1)S(=O)(=O)c1ccc2[nH]c3c(c2c1)CCCCC3,"inconclusive: 20 µM [inhibitor, partial curve, poor fit]",
O=C(c1ccoc1)N1CCC(c2noc(C3CC3)n2)C1 (stereo unspecified),,inactive: 10.3%
CC(C)Oc1ccc2c(NC(=O)c3ccn(C)n3)nn(CC(F)(F)F)c2c1,,inactive: -6.82%
COC(=O)c1ccc(NC(=O)Cn2c(=O)oc3ccccc32)cc1,,inconclusive: -79.5% [inhibitor] [at 11.5 µM]
COc1ccccc1CNC(=O)C1(c2ccc(NC(C)=O)cc2)CCCCC1,,inactive: 7.79%
COc1ccc(Nc2cc3c(nc2OC)nc(CCc2ccccc2)n3C)cn1,active: 17.8 µM,
Cc1cn2nc(C(=O)NCc3ccccc3C)cc2c(=O)[nH]1,,inactive: -8.49%
Cc1ccc2oc(C(=O)N3CCCC3)cc(=O)c2c1,,inactive: 1.56%
O=C(Nc1ccc(F)c(F)c1)c1ccc(S(=O)(=O)C2CCS(=O)(=O)C2)cc1 (stereo unspecified),,inactive: 11.1%
COc1ccc2oc(=O)c(C(=O)N(C)C3CCCCC3)cc2c1,"inconclusive: 15.8 µM [inhibitor, single point]",
COc1ccc(-n2c(-c3cccc(F)c3)nc3c(cnn3-c3ccc(C)cc3)c2=O)cc1,"inconclusive: 35.5 µM [inhibitor, partial curve, poor fit]",
